{
  "source": "paper PMC10726135",
  "note": "The list shows a part of the results. At the low end of the ranking, values are background and their order means little. The protein was read in a cell extract, so binding may be indirect.",
  "data": [
    {"biological_target": "T1, HNF4alpha2 (COS-7 nuclear extract) (UniProt P41235)", "T1 sequence": "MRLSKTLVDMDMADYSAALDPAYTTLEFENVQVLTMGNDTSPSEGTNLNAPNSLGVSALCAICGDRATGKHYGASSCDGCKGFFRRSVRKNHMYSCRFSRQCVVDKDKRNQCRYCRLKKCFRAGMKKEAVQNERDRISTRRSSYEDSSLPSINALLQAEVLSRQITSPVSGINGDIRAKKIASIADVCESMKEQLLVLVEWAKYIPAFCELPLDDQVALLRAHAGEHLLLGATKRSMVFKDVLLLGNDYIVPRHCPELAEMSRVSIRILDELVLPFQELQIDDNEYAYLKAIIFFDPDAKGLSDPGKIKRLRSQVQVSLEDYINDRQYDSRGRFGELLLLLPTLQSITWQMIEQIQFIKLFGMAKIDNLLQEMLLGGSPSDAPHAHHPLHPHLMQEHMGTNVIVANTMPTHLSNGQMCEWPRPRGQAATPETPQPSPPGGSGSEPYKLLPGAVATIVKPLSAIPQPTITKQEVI", "assay": "protein-binding microarray", "details": "COS-7 nuclear extract on double-stranded Agilent 4x180k PBM; binding buffer, salt, pH and temperature not given; high values mean tight binding; double strand, one strand shown; sequences stand for … in …GCCTAGGGAGATTAGAGTATCGGTCGA", "values": [
      {"sequence": "TGCTCTTTCTTCTCTGTAGGTAAACAGTGA", "binding signal (log2 normalized intensity)": 2.07},
      {"sequence": "ATTTGTCCGGGTATGTTCTTAAGATAAGGA", "binding signal (log2 normalized intensity)": 1.31},
      {"sequence": "AACTTTGGAAATGCAAACACCTACATTCAA", "binding signal (log2 normalized intensity)": -1.08},
      {"sequence": "AAGCGATCTTTGCATTCCCAAAATGATTCC", "binding signal (log2 normalized intensity)": 0.0417},
      {"sequence": "CTTGGGGCTGATATCTCTCTGGCTGGTGGG", "binding signal (log2 normalized intensity)": 0.505},
      {"sequence": "GGTTTGGGGTCTAGAACAGCTCCTTTGAAG", "binding signal (log2 normalized intensity)": -1.08},
      {"sequence": "GGAGCACACCAGGCCCTCGGCATCATGCCC", "binding signal (log2 normalized intensity)": -1.12},
      {"sequence": "TGTCCTTCATCTATCTCCTTCTTCCCTTCT", "binding signal (log2 normalized intensity)": 0.428},
      {"sequence": "CTCTAGGCATTGGAGATATGATAGCTGACA", "binding signal (log2 normalized intensity)": -0.789},
      {"sequence": "TTTTCTCATAAAACACCCACCTTGTTATCT", "binding signal (log2 normalized intensity)": 1.81},
      {"sequence": "AAATCATGGATCTGTGCTCAGATCCTGCTC", "binding signal (log2 normalized intensity)": -0.996},
      {"sequence": "AGGGGTGGATCTCTGTCATGTTCAATATAC", "binding signal (log2 normalized intensity)": 1.9},
      {"sequence": "CAGCTCGTGGGCATGCCTCCCAGAGCATTG", "binding signal (log2 normalized intensity)": -1.09},
      {"sequence": "GGCGAATGTCAAAGGTCTTTGGTGGTGGGG", "binding signal (log2 normalized intensity)": 2.23},
      {"sequence": "TGCAGCCTTGGACTCCTGGACTCAAGGAAT", "binding signal (log2 normalized intensity)": 4},
      {"sequence": "TACTTAAGATAGAGGCTTTAGCAATAAATT", "binding signal (log2 normalized intensity)": -1.26},
      {"sequence": "ATGGTATGCTCTGATATTCTCTTATCTACT", "binding signal (log2 normalized intensity)": 0.326},
      {"sequence": "TTCATGATCAGGCAAGTGGTCATGTAGGTG", "binding signal (log2 normalized intensity)": 2.01},
      {"sequence": "GTTTTTCCTTGATTAAACTTTAGTCAGATT", "binding signal (log2 normalized intensity)": 2.31},
      {"sequence": "TGGACTTTAAACATTCCCACCTAAGACATA", "binding signal (log2 normalized intensity)": 2.09},
      {"sequence": "CCGGCCGGCGGGGTCACGTGGGGCCGGTAC", "binding signal (log2 normalized intensity)": 3.38},
      {"sequence": "TTGGGAGCAATTTAGCAGCACCATCCTACA", "binding signal (log2 normalized intensity)": -1.01},
      {"sequence": "GGAACGTCACACTGAAAGCTATCCCTCCAT", "binding signal (log2 normalized intensity)": -0.119},
      {"sequence": "AAACTCTTTTCCTTTTTGCATGAGAATCTG", "binding signal (log2 normalized intensity)": 1.5},
      {"sequence": "TTTAGGCAGTTTTTGATCAAGGAGGACTTT", "binding signal (log2 normalized intensity)": 3.93},
      {"sequence": "CTGAGGCCAAAAGTCTCAGAAGCTGGGAGA", "binding signal (log2 normalized intensity)": -1.16},
      {"sequence": "GCAGCAATCAGCTCCTCAACCAAGGGATCA", "binding signal (log2 normalized intensity)": -1.12},
      {"sequence": "AAAGAGTGATTGAAGAAGTGGTTCTTTAGA", "binding signal (log2 normalized intensity)": 0.0315},
      {"sequence": "TCAACTCTGCCATTGTCGTGGTTGTAGAAA", "binding signal (log2 normalized intensity)": 1.07},
      {"sequence": "ACTTAGTCTCCAGCCCCCAGAGGTCACACT", "binding signal (log2 normalized intensity)": 3.86},
      {"sequence": "AGCTATGGGCAGAAAAAAATGAGTCACAAT", "binding signal (log2 normalized intensity)": -0.963},
      {"sequence": "CAGGCATTCCACACTGCAGGCTCTGTCCCC", "binding signal (log2 normalized intensity)": 0.94},
      {"sequence": "TAAAAACACGAGCTATTGCGAGGTTCCATG", "binding signal (log2 normalized intensity)": 0.143},
      {"sequence": "TGAAACAAGCCCATCTTCCAGAAAACGGGA", "binding signal (log2 normalized intensity)": -1.33},
      {"sequence": "GTGGCCCAAGATGGAGATGAGAAACTTATT", "binding signal (log2 normalized intensity)": -1.16},
      {"sequence": "TCAACTAAGACAGACCCAAAGGTTAAGGAA", "binding signal (log2 normalized intensity)": -0.888},
      {"sequence": "TCTGAAAAAAGCTATCATTTGTCACTTGGA", "binding signal (log2 normalized intensity)": 1.38},
      {"sequence": "GCACACACCAAAGCCCAAGGGATCGTCCAA", "binding signal (log2 normalized intensity)": -1.06},
      {"sequence": "ATAAGGTAACAGGCCAAAGGGCAAGAACAA", "binding signal (log2 normalized intensity)": 1.83},
      {"sequence": "CAGACCCAAAGGTTAAGGAAACAAGGGTAC", "binding signal (log2 normalized intensity)": -0.063},
      {"sequence": "TGAGATTACGTAAGTGAAAGTACACAGTGC", "binding signal (log2 normalized intensity)": 0.781},
      {"sequence": "GAGGGAGAATAAGGGTTCATCTGACTGGAA", "binding signal (log2 normalized intensity)": -0.852},
      {"sequence": "TGACCGTTCTCTCCGGGTAAAGGTGAAGGC", "binding signal (log2 normalized intensity)": 1.03},
      {"sequence": "GAACGCTGCGCATACCATATGCATTCCTGC", "binding signal (log2 normalized intensity)": -1.13},
      {"sequence": "ACTGGTTCCTGCACCCGGGCAGCCTGTGGC", "binding signal (log2 normalized intensity)": -1.21},
      {"sequence": "TGGACCAAGCTCTAGCATCCCTCTCTTGCT", "binding signal (log2 normalized intensity)": -1.18},
      {"sequence": "CCAGGACCTTTGCTCATGTCCTCTTGCTTC", "binding signal (log2 normalized intensity)": 1.57},
      {"sequence": "AACTCCCTCAGAGATGTTTAGTGAGCTGTC", "binding signal (log2 normalized intensity)": 0.709},
      {"sequence": "CATCTTCACGCAATACTAGCAATAACCACA", "binding signal (log2 normalized intensity)": -0.153},
      {"sequence": "GCATTTTTAAAATGTTTCAAAGTTTTTCCC", "binding signal (log2 normalized intensity)": -0.41},
      {"sequence": "TTCTATCCCCTTATCTAAATGGAGTTACTG", "binding signal (log2 normalized intensity)": 0.934},
      {"sequence": "CCTGATGAAGTAAATGCAGTTTGTCAAGTG", "binding signal (log2 normalized intensity)": 1.28},
      {"sequence": "CTCTGGCCGGAGGGGAGGTTATCTCGGGGC", "binding signal (log2 normalized intensity)": -1.16},
      {"sequence": "TGATTATAAACCTGCCTACATCAAGAGGAT", "binding signal (log2 normalized intensity)": -0.935},
      {"sequence": "CTCTCGGGCCAGCTGTACAAATAAAGGATG", "binding signal (log2 normalized intensity)": -0.146},
      {"sequence": "TGAGCCTCCTCCCTCTCTCTCTTAAGAACG", "binding signal (log2 normalized intensity)": 1.05},
      {"sequence": "TCTCAAAAGTTTTTCCCTTCTGTTAGAATG", "binding signal (log2 normalized intensity)": -0.592},
      {"sequence": "AGGTATTGCCCAGTATTGATGTGAGGGTAG", "binding signal (log2 normalized intensity)": 1.86},
      {"sequence": "TAGTTAGAGTCACTGATAAGTCTGCTTGCC", "binding signal (log2 normalized intensity)": -0.728},
      {"sequence": "AGGTTTGGCTGAGAGGGATAAAAGGGGAAA", "binding signal (log2 normalized intensity)": -1.14},
      {"sequence": "CACCCCAGTGTGTTGCATGCCACAGCGCCC", "binding signal (log2 normalized intensity)": 1.34},
      {"sequence": "AGCACTGGAATGTCTCTGGTTGAAGGGGAG", "binding signal (log2 normalized intensity)": -1.11},
      {"sequence": "TGTGGACTTTTTCCTGAGGGCAGGAGGAGC", "binding signal (log2 normalized intensity)": 1.07},
      {"sequence": "CTCCCTTTGATGCGGTCAGAGTTCATTTGG", "binding signal (log2 normalized intensity)": 3.48},
      {"sequence": "CACAGCTCAGATCACAAAAGATGGAACAAG", "binding signal (log2 normalized intensity)": -1.08},
      {"sequence": "GAGAAAACTCCCTCAGAGATGTTTAGTGAG", "binding signal (log2 normalized intensity)": 0.0672},
      {"sequence": "GTTAAACATTCAGATTCCTGAGCCCAGATC", "binding signal (log2 normalized intensity)": -1.11},
      {"sequence": "TGACCTTGCAGTGGCAAGGCAAAAGAGACA", "binding signal (log2 normalized intensity)": 1.17},
      {"sequence": "ACTCACTATCAGGAAACTCTTTCCTAACAG", "binding signal (log2 normalized intensity)": -1.1},
      {"sequence": "AACAAAGTCCAAATTCCTAACTATGGTTGA", "binding signal (log2 normalized intensity)": 1.41},
      {"sequence": "AACCTTTCCCTCTCTCCTGGTTTGGGGCCT", "binding signal (log2 normalized intensity)": 1.92},
      {"sequence": "AGTTGGAAAATGTCGTTTTCCCGGTTTGTT", "binding signal (log2 normalized intensity)": 1.08},
      {"sequence": "TCTGCAGCCCCTTTTGGAATCCCCATCTCA", "binding signal (log2 normalized intensity)": 3.63}
    ]}
  ]
}
